This is one part of the list. The energies were worked out here from pooled read counts, against the library average; single values are noisy.
Each sequence was assayed against T1, Pho4 (S. cerevisiae) (UniProt P07270) (assay: relative binding free energy (BET-seq); higher = weaker binding). Settings: reference: library average.
T1 sequence: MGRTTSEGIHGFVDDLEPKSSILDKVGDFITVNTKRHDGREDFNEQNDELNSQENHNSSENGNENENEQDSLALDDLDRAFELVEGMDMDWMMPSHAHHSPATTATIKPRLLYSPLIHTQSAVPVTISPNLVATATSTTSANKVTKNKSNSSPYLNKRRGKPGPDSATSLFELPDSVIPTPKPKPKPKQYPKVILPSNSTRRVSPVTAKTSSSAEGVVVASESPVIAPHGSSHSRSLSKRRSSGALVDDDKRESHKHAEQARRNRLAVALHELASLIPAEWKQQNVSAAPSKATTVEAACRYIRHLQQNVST

Row | Sequence | relative binding free energy [kJ/mol]
1 | CTATTCACGTGATTGT | 1.05
2 | GCGGACACGTGGGGTC | -0.167
3 | GGATCCACGTGTAGGT | 0.753
4 | GTAGACACGTGATTTT | 0.293
5 | ATGGGCACGTGGCCGG | -0.962
6 | TTTCACACGTGTCGTT | 0.586
7 | TGCTGCACGTGAGAGT | 1
8 | TTTTACACGTGAAGTA | 1.84
9 | GGTAGCACGTGTCTTT | 0.167
10 | CATAGCACGTGGCGGT | -0.377
11 | AGGACCACGTGTGTGG | -0.418
12 | CTTGGCACGTGTGGTC | 0
13 | GGCTGCACGTGCGATG | 0.418
14 | GAGCGCACGTGGGTTG | -0.544
15 | CTCGTCACGTGGTTAT | 0
16 | TGCTACACGTGGCGGG | -0.0837
17 | GGGTTCACGTGGCAAG | 1.17
18 | TTTCTCACGTGCCGGT | 1.42
19 | ATTGGCACGTGTGTTT | 0.293
20 | TGAGTCACGTGGTGTA | -0.167
21 | GGTCTCACGTGTCTTT | 1.21
22 | TGACGCACGTGTGAGT | 0.167
23 | TGCGGCACGTGAGGCA | 0.209
24 | TGAGGCACGTGAAGCG | 0.711
25 | GGAGTCACGTGAAGGG | 1.46

Row | Sequence | relative binding free energy [kJ/mol]
26 | TGGTTCACGTGTAGAT | 1.59
27 | AGAGGCACGTGGTAGT | -0.795
28 | GTCGGCACGTGCTTGG | -0.753
29 | CTGGTCACGTGACGGG | 0.544
30 | ATGGTCACGTGACTTT | 0.837
31 | CAAGACACGTGGGGGT | -0.293
32 | TTAATCACGTGAAGAT | 1.21
33 | AATGGCACGTGTAATG | 0.418
34 | TGAGACACGTGGGATT | 0.0837
35 | GGGAGCACGTGGGGCC | -0.628
36 | ATTGGCACGTGAGGGT | 0.753
37 | TTGGCCACGTGGTGCG | -0.879
38 | TCGTACACGTGTATGG | 0
39 | TGGTCCACGTGCAGTG | 0.753
40 | TTGTGCACGTGCGCAG | -0.377
41 | GGTTACACGTGTGGAA | 0.46
42 | TAGTTCACGTGCGTAG | 1.17
43 | TGGGTCACGTGTAACT | 1.21
44 | TGTATCACGTGAGAGT | 1.63
45 | CGATGCACGTGTTATT | 0.167
46 | CGAGGCACGTGTTTAT | -0.0837
47 | CAGGGCACGTGAGGGC | 0.335
48 | TGTCACACGTGGTAAG | 0.335
49 | GAGGACACGTGCGTTG | 0.0837
50 | AATGTCACGTGCTTTT | 0.0837

Row | Sequence | relative binding free energy [kJ/mol]
51 | TCGGTCACGTGAGGCA | 1.21
52 | ATGGTCACGTGAGCGG | 0.293
53 | GCGTTCACGTGAGTGT | 1.51
54 | GGTGACACGTGGATTT | 1.21
55 | AGTCCCACGTGGGGTG | -1.13
56 | ATGTGCACGTGACGGG | 0.251
57 | AGTCGCACGTGGTGTT | -0.418
58 | TGATTCACGTGTACTG | 1.05
59 | GGTGGCACGTGGATCG | -0.167
60 | GGGGTCACGTGAGATT | 1.72
61 | TAACGCACGTGGGGAT | -0.962
62 | GGTCTCACGTGAAAGG | 2.64
63 | TGAATCACGTGTAATG | 1.3
64 | GGTGTCACGTGATATA | 0.418
65 | TGGTCCACGTGTTATA | 0.753
66 | ATAATCACGTGGTTTT | 0.167
67 | GAGGGCACGTGATATT | 0.335
68 | TAACTCACGTGGTGGG | 0.837
69 | CTTTACACGTGGTGGG | 0.335
70 | TGGATCACGTGAGTGA | 0.92
71 | AATTCCACGTGAGAGT | 1.59
72 | AGTTGCACGTGTATTG | 0
73 | AGAGACACGTGATGGT | 0.126
74 | TTAAGCACGTGTGTCA | -0.377
75 | GTTAGCACGTGTAATT | 0.167

Row | Sequence | relative binding free energy [kJ/mol]
76 | TTATACACGTGTAGCG | 0.502
77 | TAGCTCACGTGGGTGA | 0.251
78 | GTGTACACGTGTGTCG | 0.167
79 | GTTGTCACGTGCTTGC | 0.167
80 | GGGCCCACGTGGGGAG | -1.17
81 | ATTCGCACGTGTTGGA | -0.544
82 | TAATTCACGTGAATAG | 1.88
83 | GAATGCACGTGTCGTT | 0.46
84 | TGTGCCACGTGCTTGT | -0.879
85 | TTTGTCACGTGGTTCG | 0.544
86 | GGCAGCACGTGGTTGG | 0
87 | GGTGCCACGTGGGAGA | -0.711
88 | TGAGTCACGTGTTACG | 0.377
89 | GTGCTCACGTGGTTGT | 0.753
90 | TTTGGCACGTGTCAGC | 0.418
91 | TTGGTCACGTGCGTAG | 0.126
92 | TTATACACGTGGCTTG | -0.418
93 | TGGTACACGTGGGGGC | -0.0837
94 | GCAGACACGTGGTGTG | -0.0418
95 | GTAGGCACGTGTCTGT | -0.209
96 | AGGCGCACGTGGGGGA | -1.26
97 | TGTACCACGTGTGTGG | -0.126
98 | TTTTTCACGTGTAGTC | 1.59
99 | ATGTTCACGTGTAACG | 1.67
100 | ATTTACACGTGATTGT | 0.879

Row | Sequence | relative binding free energy [kJ/mol]
101 | GGTTTCACGTGATCGG | 1.3
102 | TGGGGCACGTGTAACA | -0.293
103 | TGATTCACGTGCGGGT | 0.962
104 | CTTTGCACGTGCTTAG | 0
105 | CGATTCACGTGGTATG | 0.418
106 | TTCAACACGTGTGTTG | 0.377
107 | TTCTACACGTGATTGT | 0.544
108 | TCGTACACGTGGGTGA | -0.251
109 | TGAGGCACGTGTTCGG | -0.377
110 | TGATGCACGTGAAGTG | 1.05
111 | ATCATCACGTGTTGTG | 0.0837
112 | CTGGGCACGTGTTTGT | -0.586
113 | ATTTACACGTGTCGTC | 0.92
114 | ATTTCCACGTGGTATA | 0.167
115 | TGTGTCACGTGGGTGC | -0.126
116 | TGTCGCACGTGTGTAG | -0.209
117 | GTGTGCACGTGATATT | 0.711
118 | AGATCCACGTGGGTGT | -0.377
119 | GTGGGCACGTGGGCCT | -0.753
120 | GCAGACACGTGGGTGT | -0.92
121 | TGTAGCACGTGTCAGG | -0.126
122 | AGGCACACGTGGCGGT | -0.418
123 | GTGAGCACGTGTCGGG | -0.502
124 | GTAGTCACGTGTGCTT | 0.92
125 | CTTGTCACGTGGCATG | -0.293

Row | Sequence | relative binding free energy [kJ/mol]
126 | TTTAGCACGTGTATTG | -0.628
127 | GATTTCACGTGGACGT | 1.38
128 | CTATTCACGTGGTGAG | 0.377
129 | CTGCTCACGTGGTGTA | 0.502
130 | AGGTACACGTGAATTG | 0.544
131 | ATTAACACGTGAGTAT | 0.962
132 | GGGGGCACGTGTCACG | -0.711
133 | GGTGGCACGTGGATTC | 0.377
134 | GTAGTCACGTGTGCAG | 0.837
135 | ATAAGCACGTGGACGG | -0.293
136 | GATTTCACGTGGTTAG | 1.84
137 | GGACTCACGTGTAGGT | 0.92
138 | TTTCACACGTGGAGGG | 0.293
139 | TATTTCACGTGCTGGT | 1.17
140 | GTTGGCACGTGTCGTA | -0.377
141 | GGTTTCACGTGGAATT | 1.88
142 | TATAGCACGTGTGGTA | 0
143 | CGGATCACGTGTGGCG | 0.711
144 | TCGAACACGTGATAGG | 1.09
145 | AGGTGCACGTGGGCCG | -0.628
146 | GTGTACACGTGGCGGG | 0.167
